# T1: HA-Halo-MRAP2 (human, UniProt Q96G30 1-205, CA-Sulfo646 dye on the Halo tag)
# T1 construct: melanocortin receptor-2 accessory protein-2 (MRAP2), human; N-terminal signal peptide from rat mGluR2 in the construct; also called melanocortin receptor-2 accessory protein-2; source: HEK293, transfected, in lysate (LMNG-CHS); not shown: HA, N-terminal, kept; Halo, N-terminal, kept
# T1 sequence (looked up): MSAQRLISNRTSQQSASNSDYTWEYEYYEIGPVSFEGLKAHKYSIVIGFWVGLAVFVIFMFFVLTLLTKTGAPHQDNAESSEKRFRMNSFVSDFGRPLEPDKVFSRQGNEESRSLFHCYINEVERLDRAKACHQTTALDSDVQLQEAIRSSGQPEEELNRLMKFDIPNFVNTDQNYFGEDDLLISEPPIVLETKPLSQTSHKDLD
# B1: FLAG-CLIP-MC4R (receptor, human, UniProt P32245 1-332, looked up)
# chain: MVNSTHRGMHTSLHLWNRSSYRLHSNASESLGKGYSDGGCYEQLFVSPEVFVTLGVISLLENILVIVAIAKNKNLHSPMYFFICSLAVADMLVSVSNGSETIVITLLNSTDTDAQSFTVNIDNVIDSVICSSLLASICSLLSIAVDRYFTIFYALQYHNIMTVKRVGIIISCIWAACTVSGILFIIYSDSSAVIICLITMFFTMLALMASLYVHMFLMARLHIKRIAVLPGTGAIRQGANMKGAITLTILIGVFVVCWAPFFLHLIFYISCPQNPYCVCFMSHFNLYLILIMCNSIIDPLIYALRSQELRKTFKEIICCYPLGGLCDLSSRY
# modifications: BC-DY547 dye on the CLIP tag
# notes: melanocortin receptor-4 (MC4R), human; N-terminal signal peptide from rat mGluR2 in the construct; source: HEK293, transfected, in lysate (LMNG-CHS); not shown: CLIP, N-terminal, kept
# Biological target: T1, HA-Halo-MRAP2
# Test: single-molecule pull-down (SiMPull) with photobleaching step counting; two-color: HA-Halo protein (CA-Sulfo646) and FLAG-CLIP protein (BC-DY547) co-expressed in HEK293 (300 ng Halo and 600 ng CLIP plasmid), lysed in 0.5% LMNG/0.05% CHS, captured by biotinylated anti-HA antibody, co-localized spots analysed by TIRF; also reanalysed for monomeric against oligomeric GPCR
# Conditions: partners not purified
binder,measurement,value
B1,percent of co-localized spots with 2-step bleaching for MRAP2,24%
same,stoichiometry N,1 MRAP2 per MC4R
